In patent publication US11191722B2, “Treatment of diabetes mellitus by long-acting formulations of insulins” (SANOFI, priority 2013, dated 2021):

System: patients with type 2 diabetes mellitus
Conditions: in vivo

| Substance | HLT: Influenza viral infections |
| --- | --- |
| insulin glargine [HOE901-U300] | 8 (2.0%) n (%) |
| insulin glargine [Lantus] | 9 (2.2%) n (%) |
